Data on 167 variants can be found in the RNAGym collection of RNA variant scans (doi:10.7554/elife.90254).

Read counts are not given, so values of variants with three or more changes are uncertain.

To fix the notation:
B1: LINE1-mini (parent)
chain: GGCAGAGCUCAACACAGCGUGGCAAAGUGGCUGUGGCUAGACUGCC

The variants in this series derive from B1. The experiment in a line: self-cleavage, relative activity (ratio to wild type); higher = more cleavage; in vitro, sequencing; the parent is a self-cleaving ribozyme.
Consider G27A C42A C46U, for which the self-cleavage was 0.16.

For the variant A25G G30A U38C C45G, the self-cleavage came out at 0.01.

For the variant A26U U38A U43C, the self-cleavage worked out at 0.06.

On to A26G C31G G36A, for which the self-cleavage stood at 0.04.

For A25G G35C U38C, the self-cleavage was determined as 0.04.

In the case of G27A C31A C46A, the self-cleavage is 0.46.

For A25U G29U C45U, the self-cleavage came out at 1.43.

With G27C G33A G36A C42A, the self-cleavage stood at 0.02.

Consider A25G G30C U34A G36U C37U, for which the self-cleavage turned out to be 0.01.

Take A25G G30U C45A: the self-cleavage is 0.03.

For the variant A26C U28C C37U U43C, the self-cleavage came out at 0.02.

In the case of A26U G27A C46G, the self-cleavage is 0.07.

For the variant A26U G30A G40A, the self-cleavage came out at 0.05.

Turning to G27C G29U G30U C31U, the self-cleavage stood at 1.51.

In the case of G27C U32C G36C, the self-cleavage was found to be 0.05.

Turning to A26G C31G G33U C45A, the self-cleavage turned out to be 0.09.

For the variant A25U A26G C46U, the self-cleavage came to 1.22.

As to A26G G33U A41U C42A, the self-cleavage was 0.05.

With G27A G35U C37U, the self-cleavage stood at 0.04.

Take A26U G33A U34C U43A: the self-cleavage was found to be 0.12.

With A26U G27A G29C, the self-cleavage came out at 0.08.

For the variant A25U C31G G40U C46U, the self-cleavage came to 0.02.

A25U G27C G40C: the self-cleavage came to 0.12.

As for A26C G30C A39U U43C C46A, the self-cleavage stood at 0.07.

Regarding A25U G33A C46U, the self-cleavage amounted to 0.14.

For the variant A25U G36U C46G, the self-cleavage is 0.02.

On to A26C G29A U43G C45G, for which the self-cleavage was determined as 0.01.

Turning to A26C G27A A39C, the self-cleavage was found to be 1.57.

A25U A41G U43G: the self-cleavage was determined as 0.04.

With G27A U28C U43G, the self-cleavage was 0.03.

Turning to A25G U28A G29A C31G, the self-cleavage came to 0.23.

With G27U A39G U43A, the self-cleavage is 0.04.

For A25U C31U C37A, the self-cleavage was found to be 0.11.

As for G27U C31A U34A, the self-cleavage stood at 0.03.

Consider A25U G29U G30A, for which the self-cleavage was 0.99.

On to G27C C31G G36A C46A, for which the self-cleavage was determined as 0.01.

For A26G C31A A39G, the self-cleavage was 0.05.

As to A26G C42U C46U, the self-cleavage was 0.2.

For the variant A25U A26U G35U, the self-cleavage was 0.08.

For A26C G30C C46U, the self-cleavage was 1.42.

With A26G G27C C46A, the self-cleavage turned out to be 0.62.

As to A26C G30A G35U C37G, the self-cleavage was 0.05.

For the variant G27C G29U C37G, the self-cleavage is 0.02.

On to A26U G33C C37G C45A, for which the self-cleavage is 0.02.

On to G27A A41C C42U, for which the self-cleavage worked out at 0.06.

With A25U G27U G40C, the self-cleavage stood at 0.01.

Take A26U C31U U38A: the self-cleavage stood at 0.22.

With G27A A39U C45G, the self-cleavage was 0.08.

For the variant A26U C31A U43G C46A, the self-cleavage was found to be 0.06.

G27U A41U U43C: the self-cleavage came out at 0.07.

Regarding G27C C37U U38C, the self-cleavage is 0.01.

On to G27C C37G G44C, for which the self-cleavage was determined as 0.04.

As for A26G U38G U43C, the self-cleavage was found to be 0.03.

For A25U G36A U38A C42G, the self-cleavage is 0.03.

Consider A26U U32A U34G, for which the self-cleavage is 0.01.

For the variant A26C U28A U34A, the self-cleavage was found to be 0.11.

In the case of A25G U28G A41U, the self-cleavage turned out to be 0.11.

A25U U32C U38A: the self-cleavage was 0.05.

Take A26G U34A G44A: the self-cleavage came to 0.23.

Take A25G G40U C42A: the self-cleavage turned out to be 0.

With A25U G29U C37G U43G C45A, the self-cleavage was determined as 0.

As for A26G C31U G36C, the self-cleavage is 0.13.

On to A26G C31U G36U, for which the self-cleavage stood at 0.08.

A26C G35U C37U C46U: the self-cleavage turned out to be 0.04.

Regarding A25U C37U A41C, the self-cleavage amounted to 0.05.

For the variant G27A C37U U38A C46G, the self-cleavage was 0.08.

Consider A26U G33A U38A G40U, for which the self-cleavage was 0.11.

As for A25G U38G G40U, the self-cleavage was 0.11.

On to G27A C37U G40U, for which the self-cleavage was 0.08.

Take A25U U32G G40C: the self-cleavage worked out at 0.

As for G27C C31U C45U, the self-cleavage was 0.05.

Consider G27C A41C C45A, for which the self-cleavage was 0.08.

Regarding A26G G27U A39G, the self-cleavage was 0.04.

For the variant A26C G27U A39G, the self-cleavage amounted to 0.05.

As to A26C G27C G36U, the self-cleavage was 0.02.

As for G27A C31U U34G C37G C46A, the self-cleavage was 0.04.

As to G27C U32C G40A, the self-cleavage came out at 0.03.

With A25G G30U G36A G40U C42A, the self-cleavage was 0.01.

Take A26C U34G A41C: the self-cleavage amounted to 0.01.

A26G G29C U34A C46A: the self-cleavage came to 0.52.

With G27C G29U U34C U43A, the self-cleavage was found to be 0.04.

In the case of A26U G30A U34C, the self-cleavage was found to be 0.08.

For A26G C37U G40A, the self-cleavage was determined as 0.1.

For the variant A26U C31G G35C U38C, the self-cleavage came to 0.09.

With A26U U28C U32A G35U C46A, the self-cleavage came out at 0.04.

For G27C U28C G33U C46U, the self-cleavage is 0.41.

Consider A25U C37A G44C, for which the self-cleavage worked out at 0.05.

For the variant A26U G36U C37A, the self-cleavage is 0.07.

On to A26C C37A C42A U43G C46A, for which the self-cleavage was 0.

Turning to A25U G33A G35A, the self-cleavage was found to be 0.09.

As to A26C U28A C31G G44U, the self-cleavage stood at 0.04.

As to G27A G30U G36C C37U, the self-cleavage turned out to be 0.03.

Regarding G27C C31G C37U, the self-cleavage turned out to be 0.03.

A25U A39U U43G G44U C46U: the self-cleavage was 0.03.

For the variant A26G U34A C45G, the self-cleavage was 0.1.

For the variant A25U C45A C46G, the self-cleavage stood at 0.05.

On to A26U G29U C42U G44A, for which the self-cleavage was determined as 0.71.

As for A26U G29C C37U U43A, the self-cleavage amounted to 0.18.

On to A26G G35U U43C, for which the self-cleavage came out at 0.05.

With A25U U28A C45G, the self-cleavage turned out to be 0.04.

Regarding G27U C31A A41G C42G, the self-cleavage is 0.16.

On to G27C C31A G40C, for which the self-cleavage was found to be 0.02.

Regarding A26C U28G U34C G36A C45G, the self-cleavage came out at 0.01.

For the variant A26C G33U U43C, the self-cleavage was 0.

For A25G G30U C31U G40C, the self-cleavage stood at 0.

With A26C G40U C45A, the self-cleavage was found to be 0.05.

Consider A26C G40U C45U, for which the self-cleavage worked out at 0.07.

Consider A25U U28A U32G, for which the self-cleavage amounted to 0.35.

In the case of G27C C31A G35C A39C A41C, the self-cleavage is 0.02.

As to A26C C37G C45U, the self-cleavage was determined as 0.15.

On to G27A U43A G44A, for which the self-cleavage stood at 0.02.

A26G U32C C37U: the self-cleavage was 0.02.

In the case of A26U U34A G36A, the self-cleavage turned out to be 0.04.

Consider A25G G29A G30A, for which the self-cleavage worked out at 0.13.

For the variant A26U U34A G40U, the self-cleavage came out at 0.06.

On to A25U U28A G30C G36A G40U, for which the self-cleavage stood at 0.07.

On to A25U G36U C37G C42U, for which the self-cleavage turned out to be 0.01.

Take A25G G30U G40A: the self-cleavage came to 0.05.

For the variant A25G G27C G40C, the self-cleavage was 0.

For G27A U28G C46U, the self-cleavage is 0.83.

Take A26G G44U C45U: the self-cleavage was 0.03.

With A26C A39U U43A, the self-cleavage is 0.04.

Turning to A26U G27U G36U, the self-cleavage was found to be 0.1.

As to A25G G36A C46G, the self-cleavage amounted to 0.11.

As for A26U G40C G44U, the self-cleavage stood at 0.02.

As to G27A U28C G35C G40C, the self-cleavage came to 0.09.

Regarding A25U A26G C42A, the self-cleavage is 0.24.

With A25U A26G U32G, the self-cleavage worked out at 0.

A25U G29U U38C: the self-cleavage came out at 0.66.

With G27C G33A U38A, the self-cleavage came to 0.11.

As to A26G G27A U28G, the self-cleavage came out at 0.4.

In the case of A25U G29A C31U A41C, the self-cleavage stood at 0.02.

Regarding A25G G29U G36U G40A C45A, the self-cleavage was 0.02.

Consider A26C G29U G36U, for which the self-cleavage was found to be 0.05.

For the variant G27A G30C U38A, the self-cleavage was determined as 1.26.

As for A25G G30C G35A, the self-cleavage was determined as 0.02.

For the variant A26C G35U G40A, the self-cleavage was 0.05.

Consider A25U U28C C42G G44A, for which the self-cleavage worked out at 0.08.

G27A G36C C37A: the self-cleavage was 0.1.

For the variant G27A C31A G35A G44U, the self-cleavage is 0.03.

With G27A G30C G36A G44A, the self-cleavage was determined as 0.61.

With A26G A39G G40A C42U, the self-cleavage worked out at 0.03.

With G27C G30A G44A C45G, the self-cleavage was determined as 0.09.

Take G27A U38A C45A: the self-cleavage came to 0.1.

G27A G30A C46A: the self-cleavage is 1.17.

Regarding A25U G27C C42U, the self-cleavage came to 0.04.

Take A25G G29A U34C C45U: the self-cleavage is 0.08.

On to A26C C31A C42U, for which the self-cleavage is 0.13.

Regarding G27C U28A G29C C45A, the self-cleavage was found to be 0.8.

Turning to G27U C31G U38G A41G, the self-cleavage stood at 0.02.

With G27A U32A C37G, the self-cleavage turned out to be 0.07.

G27A G36C A39G A41G C45U: the self-cleavage amounted to 0.02.

For the variant A26U G27U C42A U43G, the self-cleavage stood at 0.03.

On to A25G G33C A41U, for which the self-cleavage is 0.01.

As for A25G G29C G36A, the self-cleavage was 0.12.

In the case of A25U G35A A39G U43C, the self-cleavage was determined as 0.04.

For the variant G27A U32A U38A, the self-cleavage amounted to 0.03.

Take A25G G30A U32A: the self-cleavage is 0.06.

Take G27C G33U G40A U43C C45U: the self-cleavage turned out to be 0.09.

In the case of A26G U28C G29A A39G C42U U43A, the self-cleavage was 0.09.

As to A25G G30U G35A G36A, the self-cleavage stood at 0.02.

On to A26G G36A A41G, for which the self-cleavage was 0.02.

Turning to A26G G29A U38A, the self-cleavage is 0.21.

In the case of G27C U43A C45A, the self-cleavage was 0.07.

For the variant A26G C42U G44U, the self-cleavage is 0.12.

As for A25U U43A C46U, the self-cleavage was found to be 0.04.

Regarding A26U C42U U43G, the self-cleavage amounted to 0.03.
